Laboratory results: patent EP0613879A1, “PHELLODENDRINE ANALOGS AND ALLERGY TYPE IV SUPPRESSOR CONTAINING THE SAME AS ACTIVE INGREDIENT” (TSUMURA & CO., priority 1991, dated 1992)
At least one read-out could not be matched to a standard name with certainty.

Test system: local graft versus host reaction
Experiment: local graft versus host reaction after transfer of BALB/c spleen cells into the right sole (popliteal lymph node weight)
Type: in vivo, CBF₁ mice
[1] = 5 x 10⁶ transferred cells, 3.0 x 10⁻⁴ mol/kg orally for eight days, against Control 1 (0.5% gum arabic-purified water)
[2] = 7.5 x 10⁶ transferred cells, 3.0 x 10⁻⁴ mol/kg orally for eight days, against Control 3 (Purified water)
[3] = 7.5 x 10⁶ transferred cells, 3.0 x 10⁻⁴ mol/kg orally for eight days, against Control 1 (0.5% gum arabic-purified water)
[4] = 7.5 x 10⁶ transferred cells, 3.0 x 10⁻⁴ mol/kg orally for eight days, against Control 2 (5% ethanol-olive oil)
[5] = 5 x 10⁶ transferred cells, 3.0 x 10⁻⁴ mol/kg orally for eight days, against Control 2 (5% ethanol-olive oil)
[6] = 7.5 x 10⁶ transferred cells, 1.0 x 10⁻⁴ mol/kg orally for eight days, against Control 2 (5% ethanol-olive oil)

Structure (SMILES) | Rate of suppression (%) [1] [%] | Rate of suppression (%) [3] [%] | Rate of suppression (%) [4] [%] | also measured
COc1ccc(CN(C)Cc2cccc(OC)c2)cc1 [Synthetic Example 27, N-(4-methoxybenzyl)-N-methyl-3-methoxybenzylamine] | 33.9 | – | – | Rate of suppression (%) [2]: 34.3%
COc1ccc(CC2c3cc(O)c(OC)cc3CCN2C(C)=O)cc1O (stereo not shown) [Synthetic Example 20, N-acetyl-1-(3-hydroxy-4-methoxybenzyl)-6-methoxy-7-hydroxy-1,2,3,4-tetrahydroisoquinoline] | 50.8 | 28.9 | – | –
Oc1ccc(CNCc2cccc(O)c2)cc1 [Synthetic Example 31, N-(4-hydroxybenzyl)-3-hydroxybenzylamine] | 36.3 | – | – | –
CCCN(Cc1ccc(O)cc1)Cc1cccc(O)c1 [Synthetic Example 64, N-(4-hydroxybenzyl)-N-n-propyl-3-hydroxybenzylamine] | – | 23.5 | – | –
COc1cc(CC(=O)N2CCc3cc(O)c(OC)cc3C2)ccc1O [Synthetic Example 15, N-(4-hydroxy-3-methoxyphenylacetyl)-6-hydroxy-7-methoxy-1,2,3,4-tetrahydroisoquinoline] | – | – | 22.3 | –
CC(=O)N(Cc1ccc(O)cc1)Cc1ccc(O)cc1 [Synthetic Example 51, N,N-bis(4-hydroxybenzyl)acetamide] | 35.0 | – | – | –
CC(=O)N(Cc1ccc(O)cc1)Cc1cccc(O)c1 [Synthetic Example 29, N-(4-hydroxybenzyl)-N-(3-hydroxybenzyl)acetamide] | 37.1 | – | – | –
COc1ccc(CN(C)Cc2ccc(O)c(OC)c2)cc1O [Synthetic Example 35, N-(4-hydroxy-3-methoxybenzyl)-N-methyl-3-hydroxy-4-methoxybenzylamine] | 43.5 | – | – | –
COc1ccc(CNCc2ccc(OC)cc2)cc1.O=C(O)/C=C\C(=O)O [Synthetic Example 46, N,N-bis(4-methoxybenzyl)amine maleate] | 32.9 | 37.2 | – | –
CCN(Cc1ccc(O)cc1)Cc1cccc(O)c1 [Synthetic Example 61, N-ethyl-N-(4-hydroxybenzyl)-3-hydroxybenzylamine] | – | 59.2 | – | –
CN(Cc1ccc(O)cc1)Cc1cccc(O)c1 [Synthetic Example 30, N-(4-hydroxybenzyl)-N-methyl-3-hydroxybenzylamine] | 51.8 | 28.7 | 33.7 | –
COc1ccc(CN(Cc2ccc(O)c(OC)c2)C(C)=O)cc1O [Synthetic Example 36, N-(4-hydroxy-3-methoxybenzyl)-N-(3-hydroxy-4-methoxybenzyl)acetamide] | – | – | 29.2 | Rate of suppression (%) [5]: 27.8%
COc1ccc(CN(C)C(=O)c2ccc(O)c(OC)c2)cc1O [Synthetic Example 14, N-(3-hydroxy-4-methoxybenzyl)-N-methyl-4-hydroxy-3-methoxybenzamide] | 35.9 | – | – | –
CN(Cc1cccc(O)c1)C(=O)c1cccc(O)c1 [Synthetic Example 6, N-methyl-N-(3-hydroxybenzyl)-3-hydroxybenzamide] | – | 37.4 | 32.9 | Rate of suppression (%) [5]: 29.0%; Rate of suppression (%) [6]: 30.1%
Oc1ccc(CNCc2ccc(O)cc2)cc1 [Synthetic Example 47, N,N-bis(4-hydroxybenzyl)amine] | 28.7 | – | – | –
COc1cccc(CNC(=O)c2cccc(OC)c2)c1 [Synthetic Example 1, N-(3-methoxybenzyl)-3-methoxybenzamide] | 25.1 | – | – | –
CN(Cc1ccc(O)cc1)C(=O)c1cccc(O)c1 [Synthetic Example 25, N-(4-hydroxybenzyl)-N-methyl-3-hydroxybenzamide] | – | – | 48.6 | Rate of suppression (%) [5]: 38.5%; Rate of suppression (%) [6]: 38.1%
Oc1cccc(CNCc2cccc(O)c2)c1 [Synthetic Example 7, N,N-bis(3-hydroxybenzyl)amine] | – | – | 27.0 | Rate of suppression (%) [5]: 37.2%; Rate of suppression (%) (7.5 x 10⁶ transferred cells, 1.0 x 10⁻⁴ mol/kg orally for eight days, against Control 3 (Purified water)): 23.9%; Rate of suppression (%) [2]: 37.1%
CCCN(Cc1ccc(OC)cc1)C(=O)c1cccc(OC)c1 [Synthetic Example 62, N-(4-methoxybenzyl)-N-n-propyl-3-methoxybenzamide] | – | – | – | Rate of suppression (%) (7.5 x 10⁶ transferred cells, 3.0 x 10⁻⁴ mol/kg orally for eight days, against Control 4 (Olive oil)): 50.8%
CCN(Cc1ccc(O)cc1)C(=O)c1cccc(O)c1 [Synthetic Example 60, N-ethyl-N-(4-hydroxybenzyl)-3-hydroxybenzamide] | – | 49.6 | – | –
